Assay results as given in PubChem BioAssay (NCI).
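Step 1: Grow cells in 96-well plates. Step 2: Expose to compound for 48 hours at 5 concentrations. Step 3: Interpolate endpoints linearly; if unreached, use highest concentration. Abbreviation: GI50, concentration required for 50% inhibition of growth. Definition used: TGI = concentration required for complete inhibition of growth.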

Tested on: NCI-H322M lung
Assay: NCI tumour cell line growth inhibition, 48 h

N/C(=N\c1nc2ccccc2s1)NC(=O)Nc1ccccc1Br
GI50: 0.256 µM
TGI: > 82.1 µM

c1ccc(CSc2nnc(-c3ccc4nc(-c5ccccc5)[nH]c4c3)o2)cc1
GI50: 17 µM
TGI: 42.1 µM
